Test results published in PubChem BioAssay AID1645887 (National Center for Advancing Translational Sciences (NCATS), 2021).
“And” between values parts separate entries of the source, which are not always exact repeats. Equal values may be shown once. The whole screen tested about 16,000 compounds, of which about 40 (0.2%) were called active. Another 1% or so got no clear call; they are omitted. Calls come from the whole dose curve; as a rule, active = well fitted activation curve with a large enough effect; inconclusive = small, poorly fitted or top-dose-only effect, or another doubt; inactive = no such curve, though single readings can be large or run the other way. Some of the results follow.

target: Rap guanine nucleotide exchange factor 4 (Homo sapiens) (UniProt Q8WZA2); assay: Validation qHTS for agonist of cAMP-regulated guanine nucleotide exchange factor 4 (EPAC2); details: EPAC2 Rap1B BODIPY-GDP exchange, fluorescence; activation: active compounds read high;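 note: exchange makes BODIPY-GDP fluorescence drop when released from Rap1B; series mostly up to about 150 µM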
How it was run: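 Signal normalized against 6.5 mM cAMP as agonist control. Mix of EPAC2 (100 nM), RAP1B-BODIPY-GDP (250 nM) and GDP (50 uM) was read kinetically at 480/540 nm, every 5 min over 30 min, after 5 min room-temperature incubation with compound.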
% is set by controls: 0 for no effect and ±100 for the full control effect.

Sequence of UniProt Q8WZA2 (Q8WZA2 whole entry, looked up): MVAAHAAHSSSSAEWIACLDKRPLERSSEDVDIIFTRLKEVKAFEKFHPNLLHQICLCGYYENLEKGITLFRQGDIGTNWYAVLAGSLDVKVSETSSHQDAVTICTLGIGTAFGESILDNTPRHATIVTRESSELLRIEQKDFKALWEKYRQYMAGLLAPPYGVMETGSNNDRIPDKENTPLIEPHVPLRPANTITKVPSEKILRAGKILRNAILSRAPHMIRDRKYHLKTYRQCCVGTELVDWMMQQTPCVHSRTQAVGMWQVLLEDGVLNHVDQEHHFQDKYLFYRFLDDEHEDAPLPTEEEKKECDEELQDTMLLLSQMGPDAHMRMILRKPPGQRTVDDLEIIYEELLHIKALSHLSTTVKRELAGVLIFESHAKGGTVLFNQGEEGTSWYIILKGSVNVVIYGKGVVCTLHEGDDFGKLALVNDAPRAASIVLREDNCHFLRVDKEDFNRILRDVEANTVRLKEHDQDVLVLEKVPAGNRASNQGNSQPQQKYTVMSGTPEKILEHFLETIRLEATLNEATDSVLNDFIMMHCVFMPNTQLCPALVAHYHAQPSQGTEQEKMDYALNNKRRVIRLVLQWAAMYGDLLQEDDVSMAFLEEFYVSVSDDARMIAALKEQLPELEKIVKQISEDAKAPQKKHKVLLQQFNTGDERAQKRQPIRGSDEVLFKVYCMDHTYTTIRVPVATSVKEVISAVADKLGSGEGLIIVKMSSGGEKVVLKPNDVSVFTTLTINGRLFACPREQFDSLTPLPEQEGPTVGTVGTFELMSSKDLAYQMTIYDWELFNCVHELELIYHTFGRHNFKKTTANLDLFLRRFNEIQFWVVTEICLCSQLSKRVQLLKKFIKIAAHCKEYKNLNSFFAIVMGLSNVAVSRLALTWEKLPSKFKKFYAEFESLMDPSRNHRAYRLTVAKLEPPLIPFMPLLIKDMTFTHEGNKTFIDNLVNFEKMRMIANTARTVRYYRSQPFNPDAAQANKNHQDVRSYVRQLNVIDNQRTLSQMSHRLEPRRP

activation, inactive:
O=C(Nc1ccccc1)N1CC2(CCN(C(=O)c3cc(C(F)(F)F)cc(C(F)(F)F)c3)CC2)C1 -13.7%
COC(=O)C1CCN(Cc2ccc3c(c2)CN(C(=O)c2cc4ccccc4n2C)CCO3)CC1 3.37%
Clc1ccc(-c2nc3sccn3c2/C=N/OCc2ccc(Cl)c(Cl)c2)cc1 -2.79% and -3.14%
COc1ccc(C(=O)N2CCC3(CCCN(Cc4ccccc4)C3)CC2)cc1 1.23%
COC(=O)N1CCC[C@@]2(CCN(c3ncccn3)C2)C1 -5.67%
CCCCCCCCCCCCC(C(=O)O)C(C)C(=O)O (configuration not stated) 3.23%
Cn1c(=O)c(-c2ccc(Cl)cc2)nc2cnc(N3CCNCC3)nc21 -4.04%
Nc1ccc(S(N)(=O)=O)cc1 -28.5% and 5.77%
Cc1noc(C)c1-c1nc(N(C)Cc2ccco2)c2ccccc2n1 -0.847%
CCCCCCCCCCCCN1[C@@H](CC(=O)O)c2cc(C(F)(F)F)ccc2S1(=O)=O -46.3%
CCOC(=O)N1CCN(Cc2ccc3c(c2)CN(C(=O)c2cc(-c4ccccc4)on2)CCO3)CC1 -4.1%
CC1CCN(CCCC(=O)c2ccc(F)cc2)CC1 -0.441%
N#CCCn1c(=O)c(-c2ccccc2)nc2cnc(Oc3ccccc3)nc21 -17%
Cc1oc(-c2ccccc2NC(=O)C2CCC2)nc1CNC(=O)c1ccc2ccccc2c1 3.25%
Cc1cc(C(=O)Nc2cccc(-c3nc(CNC(=O)c4cnccn4)c(C)o3)c2)c(C)o1 -11.3%
O=c1cc(O)cc(/C=C/c2ccc(O)c(O)c2)o1 -32.9%
O=C(c1csnn1)N1CCC2(CC1)CCN(C(c1ccccc1)c1ccccc1)CC2 -1.4%
CC(CCc1ccc(O)cc1)NCCc1ccc(O)c(O)c1 (configuration not stated) -13.6% and -31.5%
Cc1cnc(C)c(-c2cccc3c2OC(CNC(=O)c2cc(C)on2)C3)n1 (configuration not stated) -15.5%
Cc1cn([C@H]2C[C@H](O)[C@@H](CO)O2)c(=O)[nH]c1=O -6.9% and 7.69%
c1ccc(Nc2ncnc3ccc(-c4ccoc4)cc23)cc1 -7.75%
CC(C)NC(=O)N1CCC2(CC1)CCN(S(=O)(=O)c1ccccc1)CC2 -7.09%
CNc1cc(-c2ccccc2C(F)(F)F)ncn1 -1.8%
N[C@@H](Cn1cc(F)c(=O)[nH]c1=O)C(=O)O 1.99%
O=C(O)/C=C/c1ccccc1 1.23%
CC(C)CN1CCC(=O)N(CCC#N)CC1 -20.3%
O=c1c(-c2cccs2)nc2cnc(Nc3ccccc3)nc2n1C[C@H]1CCCO1 -10%
COc1cc(Br)c(C[N+]2(CCOCCC3CCC4CC3C4(C)C)CCOCC2)cc1OC (configuration not stated) -11.2%
CC1=C(C(=O)OCCN(Cc2ccccc2)c2ccccc2)C(c2cccc([N+](=O)[O-])c2)C(P2(=O)OCC(C)(C)CO2)=C(C)N1 (configuration not stated) 1.75%
Cc1c(C(=O)NC(C)(C)C)sc2ncnc(NCCN(C)C)c12 4.81%
O=C1CCN(Cc2ccccc2)CCN1[C@H](CO)Cc1ccccc1 -7.47% and -14.7%
C[C@H](N)CCCP(=O)(O)O 1.72%
COc1cccc(Cn2c(=O)c(-c3ccc(F)cc3)nc3cnc(OC)nc32)c1 -5.73%
CCCC(=O)O[C@]1(C(=O)CCl)[C@H](C)C[C@@H]2[C@H]3CCC4=CC(=O)C=C[C@]4(C)[C@@]3(F)C(=O)C[C@@]21C 0.294%
O=C(c1ccco1)N1CCC[C@@]2(CCN(c3ccccn3)C2)C1 -16.5%
CC(O)(C(=O)Nc1ccc(S(=O)(=O)c2ccccc2)cc1)C(F)(F)F (configuration not stated) -5.27% and 2.57%
O=C(C1CC12CCN(Cc1cccc3cccnc13)CC2)N1CCN(Cc2cccs2)CC1 (configuration not stated) 0.679%
CC(=O)OC[C@@]12C(=O)[C@@H](O)[C@@H](C)[C@]3(C[C@@H](c4ccoc4)O[C@@H]3OC(C)=O)[C@H]1CCC[C@]21CO1 -13.2%
O=C(OC1Cc2c(O)cc(O)cc2OC1c1cc(O)c(O)c(O)c1-c1c(C2Oc3cc(O)cc(O)c3CC2OC(=O)c2cc(O)c(O)c(O)c2)cc(O)c(O)c1O)c1cc(O)c(O)c(O)c1 (configuration not stated) -23%
C=C[C@]1(C)C[C@@H](OC(=O)CSCCN(CC)CC)[C@]2(C)[C@H](C)CC[C@]3(CCC(=O)[C@H]32)[C@@H](C)[C@@H]1O -8.38%
CC(C)N(CCC(=O)c1ccc2ccccc2c1)Cc1ccccc1 -19.1% and -25.7%
CC(c1ccon1)N(C)C(=O)c1cnn(-c2ncc3c(n2)-c2ccccc2CC3)c1C1CC1 (configuration not stated) -17.5%
CCC(C)(C)c1ccc(CC(C)CN2C[C@@H](C)O[C@@H](C)C2)cc1 (some centres not stated) 3.42%
COC(=O)[C@@H]1CCCN1Cc1ccc2c(c1)CN(Cc1ccc3c(c1)CCCN3C)CCO2 3.95%
CSc1ccc(/C=C2/C(C)=C(CC(=O)O)c3cc(F)ccc32)cc1 -15.8%
Cc1cccc(CNC(=O)c2cnn(-c3nccc(-c4cc(C)sc4C)n3)c2C)n1 -4.33%
COc1cccc(C(=O)N2CCCC(c3nc(SCCN4CCOCC4)ncc3C)C2)c1 (configuration not stated) -7%
C[N+]1(CC2COC(c3ccccc3)(C3CCCCC3)O2)CCCCC1 (configuration not stated) -10.6%
Cc1c(C(=O)N(C)CC2CCCN(C)C2)cnn1-c1nccc(-c2ccco2)n1 (configuration not stated) 1.23%
CC[C@]12CCCN3CCc4c(n(c5ccccc45)[C@@](O)(C(=O)OC)C1)[C@@H]32 -13.8%
c1ccc2c(N3CCOCC3)nc(-c3ccoc3)nc2c1 -26.9%
COCC(=O)Nc1cc(C(=O)N2CCc3sccc3C2)c2c(c1)nc(-c1ccncc1)n2C -17.1%
O=c1c(-c2cccc(Cl)c2)nc2cncnc2n1Cc1ccccc1Cl 6.65%
CCc1noc(C)c1C(=O)N1CCOc2ccc(CN3CCN(c4ccccn4)CC3)cc2C1 -10.3%
O=C(Nc1cccc(N2CCC(NCc3cnn(-c4cccc(F)c4)c3)CC2)c1)c1ccncc1 -8.59%
C=CC(=O)c1ccc(CCCCCC)cc1 -15.8%
COCCn1c(=O)c(-c2cccs2)nc2cnc(Nc3ccccc3)nc21 29.5%
Cc1nc2cnc(N(C)C)nc2n(CCC#N)c1=O 6.85%
COc1ccc(NC(=O)N2CC[C@@]3(CCCN(C(=O)c4cccn4C)C3)C2)cc1 -19.3%
Cc1cc(C)n(-c2ccc(C(=O)NCC3Cc4cc(-c5cnccn5)ccc4O3)cc2)n1 (configuration not stated) 7.12%
COc1ccc2c(c1)OCC(Cc1ccc(OC)c(OC)c1)C2=O (configuration not stated) -4.48%
COc1cccc(C(=O)O[C@H]2[C@H](Cc3ccccc3)NS(=O)(=O)[C@H]3C[C@@H]4C=C[C@]23O4)c1 -33%
COc1cc(=O)n2c(c1C(=O)N(C)Cc1cscn1)CCN(Cc1ccc3c(c1)OCCO3)CC2 -0.355%
CNC(=O)[C@@H]1C[C@H](NC2CCCCCCC2)CN1Cc1cccc(OC)c1OC -12.1%
Cc1cc(=O)c(C(=O)NCCCc2ccncc2)c2n1-c1ccccc1SC(c1cccs1)C2 (configuration not stated) 2.79%
Cn1cccc1C(=O)N1CCC2(CCN(Cc3nccs3)CC2)CC1 -6.89%
O=c1[nH]c(=O)n([C@H]2C[C@H](O)[C@@H](CO)O2)cc1/C=C/Br 0.354%
CN1CCN(c2ncc3nc(-c4cc(F)cc(F)c4)c(=O)n(C4CC4)c3n2)CC1 -9.77%
COc1cccc(CN2C(=O)NC(C)(C3CCN(Cc4cccc(O)c4)CC3)C2=O)c1OC (configuration not stated) -13.6%
CC(C)Cc1cc(C(=O)NCC2Cc3cc(F)cc(-c4ccccn4)c3O2)no1 (configuration not stated) -10.9%
Cc1cnc(CNC(=O)c2c3n(c(C)cc2=O)-c2ccccc2SC(c2ccsc2)C3)cn1 (configuration not stated) -11.6%
CN1CCN(c2nc(-c3ccoc3)nc3ccccc23)CC1 -8.21%
COc1ccccc1C1CN(Cc2c(C)nc3sccn23)Cc2ccccc2O1 (configuration not stated) 11.7%
CNC[C@@H]1CC[C@@H](N)[C@@H](O[C@H]2[C@H](O)[C@@H](O[C@H]3OC[C@](C)(O)[C@H](NC)[C@H]3O)[C@H](N)C[C@@H]2N)O1 -7.5%
Cc1csc[n+]1CCC1CCCCC1 -13.4%
CCOC(=O)c1cc(-c2ccccc2)nc2ccc(C)cc12 -1.63%
O=c1c(-c2ccc(F)cc2)nc2cnc(N3CCOCC3)nc2n1Cc1ccc(F)cc1 5.59%
CCCCC[C@H](CC(=O)NO)C(=O)N[C@H](C(=O)N1CCC[C@H]1CO)C(C)C -24.6%
Cc1nn(C)cc1CN1CCOc2ccc(C(C)(O)COc3ccccc3)cc2C1 (configuration not stated) 3.09%
COc1ccccc1CN1CCOc2ccc(CN3CCC(Oc4cccnc4)CC3)cc2C1 -10.9%
Cc1ccc(O)c([C@H](CCN(C(C)C)C(C)C)c2ccccc2)c1 12.6%
Cc1nc(N=Nc2ccc(S(=O)(=O)O)cc2S(=O)(=O)O)c(COP(=O)(O)O)c(C=O)c1O -16.3% and 4.24% and -28.5%
